In patent US20210238308A1 (Chugai, published 2021):

Experiments:
Experiment in all cases: SPR, Protein L capture
[1] = target: T1, PRYSPRY domain of human TRIM21 with N-terminal 6xHis tag (human)
T1 construct: Expressed in E. coli; also called hTRIM21; human TRIM21.PRYSPRY
T1 chain: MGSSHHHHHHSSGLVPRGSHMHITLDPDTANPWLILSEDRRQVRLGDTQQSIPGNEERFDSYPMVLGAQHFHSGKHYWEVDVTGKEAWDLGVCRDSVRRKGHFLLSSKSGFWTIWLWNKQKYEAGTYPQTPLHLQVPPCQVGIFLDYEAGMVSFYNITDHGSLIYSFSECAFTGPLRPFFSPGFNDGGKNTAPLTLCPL

[2] = target: T2, PRYSPRY domain of mouse TRIM21 with N-terminal 6xHis tag (mouse)
T2 construct: Expressed in E. coli; also called mTRIM21; mouse TRIM21.PRYSPRY
T2 chain: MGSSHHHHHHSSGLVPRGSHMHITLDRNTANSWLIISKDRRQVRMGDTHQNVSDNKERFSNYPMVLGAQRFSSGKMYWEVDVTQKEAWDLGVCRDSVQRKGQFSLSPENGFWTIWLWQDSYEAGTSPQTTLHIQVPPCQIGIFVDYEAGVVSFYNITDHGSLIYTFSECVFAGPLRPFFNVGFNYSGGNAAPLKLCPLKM

human FcRn = target: T3, human FcRn (human, UniProt P55899 part only; P61769 part only, limits assumed)
T3 construct: also called hFcRn

Sequence of human FcRn (P55899 24-290 limits assumed, form in doubt, chain 1 of 2): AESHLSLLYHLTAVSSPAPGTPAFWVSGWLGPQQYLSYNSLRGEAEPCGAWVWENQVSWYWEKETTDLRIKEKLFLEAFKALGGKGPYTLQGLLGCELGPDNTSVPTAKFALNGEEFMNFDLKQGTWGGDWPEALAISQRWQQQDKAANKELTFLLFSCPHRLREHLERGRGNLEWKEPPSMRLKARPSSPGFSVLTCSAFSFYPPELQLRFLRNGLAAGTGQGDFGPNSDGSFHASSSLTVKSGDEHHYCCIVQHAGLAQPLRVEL
Sequence of human FcRn (P61769 21-119 limits assumed, form in doubt, chain 2 of 2, further chain): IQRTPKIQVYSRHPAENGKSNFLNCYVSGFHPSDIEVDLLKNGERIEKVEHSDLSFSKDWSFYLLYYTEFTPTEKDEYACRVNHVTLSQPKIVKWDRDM

B1: MRAH-G1d/MRAL-KT0 H433G (antibody, human IgG1, kappa)
heavy: QVQLQESGPGLVRPSQTLSLTCTVSGYSITSDHAWSWVRQPPGRGLEWIGYISYSGITTYNPSLKSRVTMLRDTSKNQFSLRLSSVTAADTAVYYCARSLARTTAMDYWGQGSLVTVSS[human IgG1 constant region with H433G (EU numbers) omitted here]
light: DIQMTQSPSSLSASVGDRVTITCRASQDISSYLNWYQQKPGKAPKLLIYYTSRLHSGVPSRFSGSGSGTDFTFTISSLQPEDIATYYCQQGNTLPYTFGQGTKVEIKRTVAAPSVFIFPPSDEQLKSGTASVVCLLNNFYPREAKVQWKVDNALQSGNSQESVTEQDSKDSTYSLSSTLTLSKADYEKHKVYACEVTHQGLSSPVTKSFNRGEC
notes: copies: 2 + 2
hTRIM21 binding level ratio (variant/control antibody) [1]: 0.015 | mTRIM21 binding level ratio (variant/control antibody) [2]: -0.15 | hFcRn binding level ratio (variant/control antibody) (human FcRn): 0.87

B2: MRAH-G1d/MRAL-KT0 H433N (antibody, human IgG1, kappa)
heavy: QVQLQESGPGLVRPSQTLSLTCTVSGYSITSDHAWSWVRQPPGRGLEWIGYISYSGITTYNPSLKSRVTMLRDTSKNQFSLRLSSVTAADTAVYYCARSLARTTAMDYWGQGSLVTVSS[human IgG1 constant region with H433N (EU numbers) omitted here]
light: B1 light
notes: copies: 2 + 2
hTRIM21 binding level ratio (variant/control antibody) [1]: -0.071 | mTRIM21 binding level ratio (variant/control antibody) [2]: -0.303 | hFcRn binding level ratio (variant/control antibody) (human FcRn): 0.77

B3: MRAH-G1d/MRAL-KT0 E345Y (antibody, human IgG1, kappa)
heavy: QVQLQESGPGLVRPSQTLSLTCTVSGYSITSDHAWSWVRQPPGRGLEWIGYISYSGITTYNPSLKSRVTMLRDTSKNQFSLRLSSVTAADTAVYYCARSLARTTAMDYWGQGSLVTVSS[human IgG1 constant region with E345Y (EU numbers) omitted here]
light: B1 light
hTRIM21 binding level ratio (variant/control antibody) [1]: 0.6 | mTRIM21 binding level ratio (variant/control antibody) [2]: 2.66 | hFcRn binding level ratio (variant/control antibody) (human FcRn): 0.89

B4: MRAH-G1d/MRAL-KT0 H433D (antibody, human IgG1, kappa)
heavy: QVQLQESGPGLVRPSQTLSLTCTVSGYSITSDHAWSWVRQPPGRGLEWIGYISYSGITTYNPSLKSRVTMLRDTSKNQFSLRLSSVTAADTAVYYCARSLARTTAMDYWGQGSLVTVSS[human IgG1 constant region with H433D (EU numbers) omitted here]
light: B1 light
notes: copies: 2 + 2
hTRIM21 binding level ratio (variant/control antibody) [1]: -0.009 | mTRIM21 binding level ratio (variant/control antibody) [2]: -0.188 | hFcRn binding level ratio (variant/control antibody) (human FcRn): 0.48

B5: MRAH-G1d/MRAL-KT0 H435E (antibody, human IgG1, kappa)
heavy: QVQLQESGPGLVRPSQTLSLTCTVSGYSITSDHAWSWVRQPPGRGLEWIGYISYSGITTYNPSLKSRVTMLRDTSKNQFSLRLSSVTAADTAVYYCARSLARTTAMDYWGQGSLVTVSS[human IgG1 constant region with H435E (EU numbers) omitted here]
light: B1 light
notes: copies: 2 + 2
hTRIM21 binding level ratio (variant/control antibody) [1]: 0.229 | mTRIM21 binding level ratio (variant/control antibody) [2]: 0.708 | hFcRn binding level ratio (variant/control antibody) (human FcRn): 0.25

B6: MRAH-G1d/MRAL-KT0 H433L (antibody, human IgG1, kappa)
heavy: QVQLQESGPGLVRPSQTLSLTCTVSGYSITSDHAWSWVRQPPGRGLEWIGYISYSGITTYNPSLKSRVTMLRDTSKNQFSLRLSSVTAADTAVYYCARSLARTTAMDYWGQGSLVTVSS[human IgG1 constant region with H433L (EU numbers) omitted here]
light: B1 light
notes: copies: 2 + 2
hTRIM21 binding level ratio (variant/control antibody) [1]: -0.016 | mTRIM21 binding level ratio (variant/control antibody) [2]: -0.18 | hFcRn binding level ratio (variant/control antibody) (human FcRn): 0.63

B7: MRAH-G1d/MRAL-KT0 H433P (antibody, human IgG1, kappa)
heavy: QVQLQESGPGLVRPSQTLSLTCTVSGYSITSDHAWSWVRQPPGRGLEWIGYISYSGITTYNPSLKSRVTMLRDTSKNQFSLRLSSVTAADTAVYYCARSLARTTAMDYWGQGSLVTVSS[human IgG1 constant region with H433P (EU numbers) omitted here]
light: B1 light
notes: copies: 2 + 2
hTRIM21 binding level ratio (variant/control antibody) [1]: -0.019 | mTRIM21 binding level ratio (variant/control antibody) [2]: -0.204 | hFcRn binding level ratio (variant/control antibody) (human FcRn): 1.2

B8: MRAH-G1d/MRAL-KT0 H435F (antibody, human IgG1, kappa)
heavy: QVQLQESGPGLVRPSQTLSLTCTVSGYSITSDHAWSWVRQPPGRGLEWIGYISYSGITTYNPSLKSRVTMLRDTSKNQFSLRLSSVTAADTAVYYCARSLARTTAMDYWGQGSLVTVSS[human IgG1 constant region with H435F (EU numbers) omitted here]
light: B1 light
notes: copies: 2 + 2
hTRIM21 binding level ratio (variant/control antibody) [1]: 0.018 | mTRIM21 binding level ratio (variant/control antibody) [2]: 2.79 | hFcRn binding level ratio (variant/control antibody) (human FcRn): 0.05

B9: MRAH-G1d/MRAL-KT0 H433M (antibody, human IgG1, kappa)
heavy: QVQLQESGPGLVRPSQTLSLTCTVSGYSITSDHAWSWVRQPPGRGLEWIGYISYSGITTYNPSLKSRVTMLRDTSKNQFSLRLSSVTAADTAVYYCARSLARTTAMDYWGQGSLVTVSS[human IgG1 constant region with H433M (EU numbers) omitted here]
light: B1 light
notes: copies: 2 + 2
hTRIM21 binding level ratio (variant/control antibody) [1]: -0.004 | mTRIM21 binding level ratio (variant/control antibody) [2]: -0.1 | hFcRn binding level ratio (variant/control antibody) (human FcRn): 0.93

B10: MRAH-G1d/MRAL-KT0 H433E (antibody, human IgG1, kappa)
heavy: QVQLQESGPGLVRPSQTLSLTCTVSGYSITSDHAWSWVRQPPGRGLEWIGYISYSGITTYNPSLKSRVTMLRDTSKNQFSLRLSSVTAADTAVYYCARSLARTTAMDYWGQGSLVTVSS[human IgG1 constant region with H433E (EU numbers) omitted here]
light: B1 light
notes: copies: 2 + 2
hTRIM21 binding level ratio (variant/control antibody) [1]: 0.008 | mTRIM21 binding level ratio (variant/control antibody) [2]: -0.098 | hFcRn binding level ratio (variant/control antibody) (human FcRn): 0.55

B11: MRAH-G1d/MRAL-KT0 H435I (antibody, human IgG1, kappa)
heavy: QVQLQESGPGLVRPSQTLSLTCTVSGYSITSDHAWSWVRQPPGRGLEWIGYISYSGITTYNPSLKSRVTMLRDTSKNQFSLRLSSVTAADTAVYYCARSLARTTAMDYWGQGSLVTVSS[human IgG1 constant region with H435I (EU numbers) omitted here]
light: B1 light
notes: copies: 2 + 2
hTRIM21 binding level ratio (variant/control antibody) [1]: -0.08 | mTRIM21 binding level ratio (variant/control antibody) [2]: 0.461 | hFcRn binding level ratio (variant/control antibody) (human FcRn): 0.01

B12: MRAH-G1d/MRAL-KT0 H433A (antibody, human IgG1, kappa)
heavy: QVQLQESGPGLVRPSQTLSLTCTVSGYSITSDHAWSWVRQPPGRGLEWIGYISYSGITTYNPSLKSRVTMLRDTSKNQFSLRLSSVTAADTAVYYCARSLARTTAMDYWGQGSLVTVSS[human IgG1 constant region with H433A (EU numbers) omitted here]
light: B1 light
notes: copies: 2 + 2
hTRIM21 binding level ratio (variant/control antibody) [1]: -0.054 | mTRIM21 binding level ratio (variant/control antibody) [2]: -0.25 | hFcRn binding level ratio (variant/control antibody) (human FcRn): 1.07
